# Data taken from article PMC4336329 (PLoS ONE, 2015).
# Out of some 310,000 compounds screened, about 14,000 (4.5%) showed an effect of 50% or more. The effect is printed as a negative number. The list shows a part of the results.
# Target: human ether-à-go-go-related gene (hERG) potassium channel (human, UniProt Q12809)
# Assay: primary screen, population patch clamp on CHO cells stably expressing hERG
# 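Note: peak tail current of the secondary pulse compared with the same well before compound.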
# Chain of human ether-à-go-go-related gene (hERG) potassium channel (Q12809 whole entry, looked up): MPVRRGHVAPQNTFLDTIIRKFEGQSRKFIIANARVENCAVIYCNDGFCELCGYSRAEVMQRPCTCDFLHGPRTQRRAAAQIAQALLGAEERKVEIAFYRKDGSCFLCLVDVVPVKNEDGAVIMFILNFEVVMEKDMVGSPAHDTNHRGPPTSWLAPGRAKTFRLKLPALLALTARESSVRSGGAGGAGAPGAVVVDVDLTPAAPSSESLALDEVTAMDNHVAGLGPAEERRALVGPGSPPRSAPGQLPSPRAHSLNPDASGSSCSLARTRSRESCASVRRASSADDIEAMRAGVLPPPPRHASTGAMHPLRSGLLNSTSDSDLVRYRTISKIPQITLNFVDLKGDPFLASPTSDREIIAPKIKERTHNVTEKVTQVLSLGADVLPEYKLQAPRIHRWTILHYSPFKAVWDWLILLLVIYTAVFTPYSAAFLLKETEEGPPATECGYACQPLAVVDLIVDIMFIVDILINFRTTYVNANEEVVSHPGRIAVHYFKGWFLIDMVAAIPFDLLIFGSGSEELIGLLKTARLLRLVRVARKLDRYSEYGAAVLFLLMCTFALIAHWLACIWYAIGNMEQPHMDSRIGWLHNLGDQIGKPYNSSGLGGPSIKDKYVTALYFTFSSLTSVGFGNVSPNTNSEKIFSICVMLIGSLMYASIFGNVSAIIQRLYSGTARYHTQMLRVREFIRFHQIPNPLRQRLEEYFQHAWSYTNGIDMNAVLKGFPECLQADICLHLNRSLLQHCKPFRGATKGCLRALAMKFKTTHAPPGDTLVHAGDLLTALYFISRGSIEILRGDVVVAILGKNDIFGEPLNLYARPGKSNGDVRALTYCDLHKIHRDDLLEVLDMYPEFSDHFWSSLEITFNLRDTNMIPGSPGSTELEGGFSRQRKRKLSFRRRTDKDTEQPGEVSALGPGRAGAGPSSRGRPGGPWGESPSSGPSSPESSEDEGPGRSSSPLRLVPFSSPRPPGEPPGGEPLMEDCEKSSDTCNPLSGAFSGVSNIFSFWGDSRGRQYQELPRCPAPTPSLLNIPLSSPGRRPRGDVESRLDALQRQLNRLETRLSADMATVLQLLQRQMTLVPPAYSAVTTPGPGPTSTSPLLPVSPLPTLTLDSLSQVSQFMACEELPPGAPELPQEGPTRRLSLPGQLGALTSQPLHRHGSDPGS
row,SMILES,"hERG current change (%, negative = inhibition) at 10uM [%]"
1,CCOc1ccc(Nc2nc(N)c([N+](=O)[O-])c(N3CCOCC3)n2)cc1,7.74
2,Cc1ccc(NC(=O)CN2CCC(NC(=O)c3ccccc3F)CC2)cc1C.Cl,-18
3,CC(=O)NCCNC(=O)C1CCC(CNc2nc(=S)[nH]c3ccccc23)CC1 (stereo not drawn),6.59
4,Cn1c(SCC(=O)NC2CC2)nnc1-c1ccccn1,10.2
5,COc1ccc(/C=C2\SC(=O)N(CC(=O)NCCCn3ccnc3)C2=O)cc1,-44.5
6,O=C(NC1CCCCC1)C(c1ccc2ncccc2c1)N(Cc1ccc(F)cc1)C(=O)c1cccs1 (stereo not drawn),-22
7,O=C(COC(=O)c1ccc2ccccc2n1)Nc1cccc(S(=O)(=O)NC2=NCCCCC2)c1,-4.1
8,CCOc1ccc(N(CC(=O)N/N=C/c2cc(Br)c(C)o2)S(C)(=O)=O)cc1,4.71
9,Cc1cccc(Nc2cc(=O)n(C)c(=O)[nH]2)c1,17.9
10,CCC(=O)N1CCc2cc(S(=O)(=O)CCC(=O)NC3CCCCC3)ccc21,5.33
11,O=C(CS(=O)(=O)Cc1ccccc1)Nc1ccccn1,-3.96
12,O=[N+]([O-])c1ccc(N2CCN(c3ccc([N+](=O)[O-])cc3CO)CC2)c(CO)c1,-64.7
13,O=c1oc2ccccc2c(N2CCCCC2)c1CN1CCCC1,-54.4
14,O=C(c1cc(Cl)nc2ccccc12)N1CCN(S(=O)(=O)c2cccc(F)c2)CC1,-5.28
15,COc1ccc(C(=O)N2CCN(c3ccccc3)CC2)cc1S(=O)(=O)N1CCOCC1,-16.7
16,CCN1CCN(CC(=O)Nc2cc(F)ccc2C)CC1,-46.2
17,O=C(/C=C/c1c(Cl)cccc1Cl)NCCCn1ccnc1,-22.2
18,CC(c1ccco1)N(C(=O)COc1ccc(Cl)cc1)c1ccccn1 (stereo not drawn),-12.7
19,C/C(=N\O)C(=O)NCCN(C)C,29.3
20,O=C(NCc1csc2ccc(Cl)cc12)Nc1ccccc1,13
21,CCOC(=O)c1[nH]c(C)c(C(=O)NCc2ccc(OC)cc2)c1C,2.13
22,Cc1cc(C(=O)NC(C)Cc2ccccc2)cc(C)c1[N+](=O)[O-] (stereo not drawn),2.43

row,SMILES,"hERG current change (%, negative = inhibition) at 10uM [%]"
1,O=c1oc(CCCO)cc2ccc(C#CC3(O)CCCCC3)cc12,-6.73
2,COc1ccc(CNC(=O)Cn2nc([N+](=O)[O-])cc2C)cc1,0.309
3,Cc1ccccc1OCC(O)Cn1c(SC(C)C)nc2c1c(=O)[nH]c(=O)n2C (stereo not drawn),-24.8
4,CCC(=O)N1c2ccc(S(=O)(=O)CCC(=O)N3CCC4(CC3)OCCO4)cc2CC1C (stereo not drawn),10.3
5,Cc1ccc(S(=O)(=O)N2CCC(C(=O)OC(C)C(=O)NCc3ccccc3)CC2)cc1C (stereo not drawn),-16.9
6,N#Cc1ccc(/C=C/C(=O)c2ccccc2)cc1,-11.1
7,COc1ccc(NS(=O)(=O)c2cc(NC(=O)[C@@H](NC(=O)c3ccccc3)C(C)C)ccc2C)cc1,-10.8
8,O=C(c1c(F)cccc1Cl)N1CCN(S(=O)(=O)c2ccc3c(c2)OCCCO3)CC1,-0.77
9,CCOC(=O)c1sc2nc(SCC#N)n(CC3CCCO3)c(=O)c2c1C (stereo not drawn),-13.5
10,COc1cc(C)c(C)cc1S(=O)(=O)n1c(C)nc2ccccc21,-4.75
11,CCOC(=O)c1ccc(NC(=S)NCCc2ccccc2F)cc1,-8.72
12,COCCCNC(=S)N1CCN(c2ccccc2)CC1,12.9
13,CCOc1ccc(NC(=O)c2ccc(NC(=O)c3cn4c5c(c(N6CCN(C)CC6)c(F)cc5c3=O)OCC4C)cc2)cc1 (stereo not drawn),-4.75
14,O=C(Nc1ccc(-c2nc3ccccc3s2)c(OC(=O)c2ccccc2)c1)c1ccccc1,9.01
15,Cc1cc(C)cc(N(CC(=O)NC2CCCC2)C(=O)CCC(=O)Nc2cc(C)on2)c1,3.71
16,O=C(Nc1ccc(NC(=O)C2CC2)nc1)c1cccnc1,7.26
17,COCCn1c(SCc2ccc(F)cc2)nc2ccccc2c1=O,8.09
18,O=C(CCSc1nnc(-c2ccncc2)o1)Nc1cccc2ccccc12,-20.5
19,CC12CN3CC(C)(CN(C1)C3c1ccc3c(c1)OCO3)C2O (stereo not drawn),6.36
20,COc1ccc(C(=O)Nc2ccc(N3CCOCC3)cc2)cc1OC,1.36
21,CCCOC(=O)c1cc(-c2ccc(C=O)o2)ccc1Cl,-7.95
22,CC(/C=C/c1ccccc1)=N\NC(N)=S,12.3

row,SMILES,"hERG current change (%, negative = inhibition) at 10uM [%]"
1,CCC(=O)N1CCc2cc(S(=O)(=O)N3CCN(c4cc(Cl)ccc4C)CC3)ccc21,2.72
2,CCCCn1c(N)c(N(CCOC)C(=O)c2c(CC)noc2C)c(=O)[nH]c1=O,19.9
3,CC1CCN(S(=O)(=O)c2ccc(C(=O)N3CCCCC3C(=O)O)cc2)CC1 (stereo not drawn),20.3
4,CCOC(=O)/C(C(=O)Nc1ccc(Br)cc1)=C1/NC(C)(C)Cc2ccccc21,3.96
5,COc1cccc(/C(O)=C2/C(=O)C(=O)N(Cc3cccnc3)C2c2ccco2)c1 (stereo not drawn),23
6,O=C1Nc2ccc(Br)cc2C1(O)c1ccccc1 (stereo not drawn),4.3
7,CCOC(=O)N1CCN(C(=O)c2ccc3c(c2)N=C(C)c2cc(Cl)ccc2S3)CC1,-25.6
8,CC1(C)CC(=O)C2=C(C1)Nc1ccccc1NC2,12.4
9,Cc1cc(-c2cccs2)c(C#N)c(=S)[nH]1,10.8
10,O=C(CSc1nnc(Cc2ccccc2)n1-c1ccc(F)cc1)N1CCOCC1,-13.8
11,Cc1cccnc1NC(=S)NC(=O)c1oc2ccccc2c1C,14.2
12,N#CC(C#N)=C1C=CC=CN1/C(=C\c1ccco1)C(=O)c1ccc(Cl)cc1,-36
13,O=C(CSc1nc2c(cnn2-c2ccc(F)cc2)c(=O)[nH]1)N1CCCCC1,1.82
14,CC(C)(C)[C@H]1C=C(C(=O)N2CCN(Cc3ccc4c(c3)OCO4)CC2)O[C@@H](OCCCCO)C1,-23.4
15,Cc1ccc(C(=O)Nc2ccccc2C(=O)N2CCCC(C)C2)cc1 (stereo not drawn),-0.444
16,C[C@@H](C(=O)Nc1ccc2ccccc2c1)[C@@H]1C[C@@]1(C)[C@@H](NC(=O)c1cccnc1)c1ccccc1,-3.53
17,CCOC(=O)COc1ccc(/C=C2/C(=O)NN(c3ccc(F)cc3)C2=O)cc1OC,12.4
18,Cc1ccc(C(=O)NCC(=O)N(C)CC(=O)Nc2c(Cl)cccc2Cl)s1,7.65
19,Br.CC(C)CC(N)C(=O)OCc1ccc([N+](=O)[O-])cc1 (stereo not drawn),7.33
20,COCCNC(=O)C(c1ccccc1C)N(C(=O)Cn1nnc2ccccc21)c1cccnc1 (stereo not drawn),14.5
21,Cc1ccc(S(N)(=O)=O)cc1,21.4
22,[N-]=[N+]=N[C@@H](CCN1CC[C@H](NC(=O)OCc2ccccc2)CCC1=O)c1ccccc1,-43.5

row,SMILES,"hERG current change (%, negative = inhibition) at 10uM [%]"
1,O=C(CCCc1nc2ccccc2s1)N1CCN(c2ccccc2)CC1,-39.9
2,CSc1nnc(C)c(=O)n1COC(=O)c1ccccc1,-3.19
3,CCOC(=O)CC(NC(=O)Cn1nnc(-c2ccccc2F)n1)c1ccccc1Cl (stereo not drawn),12.1
4,Cc1c(C)n(C(=O)CSc2nc3ccccc3[nH]2)c2ccccc12,7.29
5,CC(=O)c1cccc(NC(=O)N2CCC(NC(=O)C3CCCCC3)CC2)c1,7.09
6,OCCCc1cn(-c2ccccc2)c2ccccc12,7.41
7,CCOC(=O)C1C(=O)NC(N2CCOCC2)=NC1c1ccco1 (stereo not drawn),10.7
8,Cc1ccc(C(NC(=O)c2ccccc2S(C)(=O)=O)c2ccccc2)cc1 (stereo not drawn),-30.3
9,CCOC(=O)c1c(C)c(C(=O)NCCN2CCOCC2)c(C)n1C,15.1
10,O=C(CN1C(=O)NC2(CCCC2)C1=O)c1ccc(Cl)s1,3.4
11,Cc1nn(C)c(C)c1CN(Cc1nc(-c2cc(F)ccc2F)oc1C)C1CC1,-8.99
12,Nc1nc(SCC(=O)Nc2c(Br)cc([N+](=O)[O-])cc2Br)n[nH]1,10.5
13,Cc1ccc(NS(=O)(=O)c2ccc3c(c2)CCC(=O)N3)cc1,-2.02
14,Cc1ccc(N/C=C2/Sc3ccccc3NC2=O)cc1,-0.823
15,COCCNC(=O)Cc1ccc(F)cc1,5.57
16,CCCCC(=NCCO)C1=C(O)C(C(=O)OC)C(C)(C)CC1=O (stereo not drawn),13.1
17,CCOc1cccc(-c2nn3c(-c4ccco4)nnc3s2)c1,-49.4
18,CCN(CC(=O)Nc1ccc(NC(C)=O)cc1)C(=O)COc1ccc(C(=O)c2ccccc2)cc1,0.309
19,C/C(=N\Nc1ncnc2sc(C)c(C)c12)c1ccccn1,-35.5
20,O=C(Nc1ccccc1C(=O)O)c1cc(S(=O)(=O)N2CCCCCC2)ccc1Cl,11.6
21,O=C(Cn1c2ccc(F)cc2c2nc3n(c(=O)c21)CCS3)N1CCCC1,6.84
